Reference: PubChem BioAssay AID1030 (National Center for Advancing Translational Sciences (NCATS), 2008)
The whole screen tested about 220,000 compounds, of which about 16,000 (7.3%) were called active. The shares of active, inactive and inconclusive entries below differ from those in the screen. The call rests on the fitted dose curve; in most records, active means well fitted inhibition curve with a large enough effect (not every such curve was filed as active); inconclusive means small, poorly fitted or top-dose-only effect, or another doubt; inactive means no such curve, though single readings can be large or run the other way. No potency is given beside an inconclusive call; the fits are too rough.

Target: Aldehyde dehydrogenase 1A1 (Homo sapiens) (UniProt P00352)
Assay: qHTS Assay for Inhibitors of Aldehyde Dehydrogenase 1 (ALDH1A1);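 on activity, negative = inhibition: plate controls were no enzyme wells and a reference inhibitor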
Settings: Purified ALDH1A1, NADH fluorescence, propionaldehyde substrate; series mostly up to 75.3 µM; activity, negative = inhibition: at the top concentration
Potency means the concentration at half of the fitted maximal effect; tags describe the fitted curve by direction and shape.

UniProt P00352, sequence (P00352 whole entry, looked up): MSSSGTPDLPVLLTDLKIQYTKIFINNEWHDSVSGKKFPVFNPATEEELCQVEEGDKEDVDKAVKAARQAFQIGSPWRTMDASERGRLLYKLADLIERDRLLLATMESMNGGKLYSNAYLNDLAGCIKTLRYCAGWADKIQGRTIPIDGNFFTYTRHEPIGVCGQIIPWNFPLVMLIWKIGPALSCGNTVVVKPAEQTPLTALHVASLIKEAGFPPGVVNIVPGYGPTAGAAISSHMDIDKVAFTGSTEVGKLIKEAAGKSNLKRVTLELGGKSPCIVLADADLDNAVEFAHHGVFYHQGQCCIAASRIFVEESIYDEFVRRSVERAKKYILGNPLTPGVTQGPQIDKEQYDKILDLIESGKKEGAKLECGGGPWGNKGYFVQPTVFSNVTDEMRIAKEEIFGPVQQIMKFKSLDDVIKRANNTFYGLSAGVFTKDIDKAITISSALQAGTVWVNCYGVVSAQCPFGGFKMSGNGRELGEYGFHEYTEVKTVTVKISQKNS

SMILES	activity, negative = inhibition	Potency
Nc1nc(CC(=O)O)cs1	inactive: -13.5%	–
CN(C)c1cccc(C(=O)NC2CCCCCC2)c1	inactive: -4.12%	–
O=C(CN1CCCCC1)Nc1ccc(NC(=O)c2ccccc2Cl)cc1Cl	–	inconclusive [inhibitor, single point]
Cc1nc2c(cnn2-c2ccccc2Cl)c(=O)n1-c1ccc(N2CCC(C)CC2)cc1	–	inconclusive [inhibitor, single point]
COc1ccc2c(CN3CCN(S(=O)(=O)c4cccs4)CC3)cc(=O)oc2c1	–	active: 14.1 µM
CS(=O)(=O)c1ccc(C(O)C(CO)NC(=O)C(Cl)Cl)cc1 (configuration not stated)	inactive: 2.21%	–
O=C(c1cnn2c(C(F)(F)F)cc(-c3ccc4c(c3)OCO4)nc12)N1CCCCC1	inactive: 1.88%	–
Cc1ccc(-n2cnc3scc(-c4cccs4)c3c2=O)cc1	–	inconclusive [inhibitor, single point]
Cc1cnc(CNc2cc(-c3cccc(C#N)c3)ncn2)cn1	–	inconclusive [inhibitor, partial curve]
CC(=O)OCC(=O)[C@]12OC(C)(C)O[C@@H]1C[C@H]1[C@H]3CC=C4C[C@@H](O)CC[C@]4(C)[C@H]3CC[C@]12C	inactive: 3.93% [at 13.5 µM]	–
O=S1(=O)CC2N=C(N(Cc3c(F)cccc3Cl)c3ccccc3F)SC2C1 (configuration not stated)	–	inconclusive [inhibitor, partial curve]
CCOCCCN1C(=O)CN(C2CCCCC2)C(=O)C1c1ccc(OCC)c(OC)c1 (configuration not stated)	–	inconclusive [inhibitor, single point]
C=CCn1c(-c2cccc(S(=O)(=O)N(CC)CC)c2)n[nH]c1=S	–	active: 2.24 µM
Cc1ccc(N2NC(=O)/C(=C/c3ccc(-c4ccc(Cl)c(C(=O)O)c4)o3)C2=O)cc1C	–	inconclusive [inhibitor, single point]
CCCOc1ccc(C(O)C(CN2CCOCC2)c2ccccc2)cc1 (configuration not stated)	–	inconclusive [inhibitor, partial curve]
CC(C)Oc1cccc(-c2nnc(SCC(=O)Nc3ccc4c(c3)OCCO4)n2N)c1	–	active: 12.6 µM
O=c1cc(CN2CCN(c3ccccc3)CC2)c2cc(O)c(-c3ccccc3)cc2o1	–	inconclusive [inhibitor, single point]
COC(=O)N/N=C/c1cc(Br)ccc1O	inactive: 2.36%	–
COc1ccc(N2CC(C(=O)Nc3ccc(S(=O)(=O)Nc4nccs4)cc3)CC2=O)cc1 (configuration not stated)	–	inconclusive [inhibitor, partial curve]
COc1ccc(/C=C/C(=O)N2CCN(c3ccccn3)CC2)c2ccccc12	–	inconclusive [inhibitor, single point]
CC(C)C(=O)OCC(=O)Nc1ccc(N=Nc2ccccc2)cc1	–	inconclusive [inhibitor, single point]
NNC(=O)CNS(=O)(=O)c1ccc([N+](=O)[O-])cc1	–	inconclusive [inhibitor, single point]
Cc1ccc(N/C=C/C(=O)c2cccs2)cc1C	–	inconclusive [inhibitor, partial curve]
CCOC(=O)COn1c(=O)c[n+]([O-])c2ccccc21	–	inconclusive [inhibitor, single point]

SMILES	activity, negative = inhibition	Potency
O=C(NCC1CCCO1)C12CN(Cc3ccccc3)CC1C(c1cccc([N+](=O)[O-])c1)=NO2 (configuration not stated)	–	inconclusive [inhibitor, single point]
FC(F)(F)c1ccccc1-c1nc(N2CCOCC2)c2ccccc2n1	inactive: -5.53%	–
NNc1nccc(Nc2ccccc2C(=O)O)n1	–	inconclusive [inhibitor, full curve]
CC12CCC(c3c1nc1ccccc1[n+]3[O-])C2(C)C (configuration not stated)	–	inconclusive [inhibitor, single point]
CCOC(=O)c1ccccc1NC(=O)c1ccccc1SC	–	active: 14.1 µM
COc1ccccc1CN1CC2(CCN(C(=O)c3cccc(F)c3)CC2)C1	–	inconclusive [inhibitor, single point]
CC1CN(C2CCN(C(=O)c3ccccc3Cl)CC2)CC(C)O1 (configuration not stated)	–	inconclusive [inhibitor, single point]
O=C(OCc1ccc2c(c1)OCO2)c1ccc(S(=O)(=O)N2CCCCC2)cc1	–	inconclusive [inhibitor, single point]
Cc1ccc(C)c(CN2C(=O)C3CCCN3c3ccc(C#N)cc32)c1 (configuration not stated)	–	inconclusive [inhibitor, single point]
CCc1sc(C(=O)N2CCc3ccccc32)cc1C	–	inconclusive [inhibitor, partial curve]
Cc1ccc(S(=O)(=O)Nc2ccc(O)c(Sc3ncn[nH]3)c2)cc1	–	inconclusive [inhibitor, partial curve]
O=c1oc2ccccc2c(NCc2ccccc2)c1[N+](=O)[O-]	–	active: 11.2 µM
COc1ccc(Oc2ncc3nc(-c4ccc(Cl)cc4)c(=O)n(C[C@H]4CCCO4)c3n2)cc1	–	inconclusive [inhibitor, single point]
COc1ccccc1CNCC(O)Cn1c2ccccc2c2ccccc21 (configuration not stated)	–	inconclusive [inhibitor, single point]
O=C(COC(=O)CNC(=O)c1ccccc1)Nc1ccccc1Cl	–	inconclusive [inhibitor, single point]
Cc1ccc(-n2nnnc2SCC(=O)NCCC2=CCCCC2)c(C)c1	–	inconclusive [inhibitor, single point]
O=C(Cc1c(C(=O)O)[nH]c2ccc(Cl)cc12)Nc1ccc2c(c1)OCCO2	inactive: 9.58%	–
Cc1ccc(-c2csc3nc(C)n(N)c(=O)c23)o1	inactive: 7.5%	–
COc1cccc2c(=O)n(CC(=O)N3CCCc4ccccc43)ccc12	–	active: 10 µM
O=c1c2cccc3c2c(nn1CN1CCOCC1)-c1ccccc1-3	–	inconclusive [inhibitor, single point]
COC(=O)c1cc(OC)c(OC)cc1NCC(=O)Nc1cccc(C(F)(F)F)c1	–	inconclusive [inhibitor, partial curve]
COc1ccc(-n2c(C)cc(C(=O)COC(=O)c3cc(NC(=O)c4cccs4)c(OC)c(OC)c3)c2C)cc1	–	inconclusive [inhibitor, single point]
O=C(CCSc1nc(-c2ccc3c(c2)OCO3)cc(C(F)(F)F)n1)NCc1ccccc1	–	inconclusive [inhibitor, partial curve]
O=C(C1CCCN(S(=O)(=O)c2cccc3nonc23)C1)N1CCN(c2ccccc2)CC1 (configuration not stated)	–	inconclusive [inhibitor, single point]

SMILES	activity, negative = inhibition	Potency
CCCc1nc2cc(Cl)c([N+](=O)[O-])cc2o1	–	inconclusive [inhibitor, partial curve]
CCOc1cc(C2CC(=O)c3c(ccc4ccccc34)N2)ccc1O (configuration not stated)	inactive: -1.75%	–
CC(=O)Cc1nsc(Nc2ccc(F)cc2)n1	inactive: -4.11%	–
CCCCNc1ccc2nsnc2c1[N+](=O)[O-]	inactive: 0.782%	–
N#CCCn1c(=O)c(-c2cccs2)nc2cnc(Oc3ccccc3)nc21	–	inconclusive [inhibitor, full curve]
Cc1nccn1C[C@@H]1CCc2c(c3ccccc3n2C)C1=O	inactive: -2.06% [at 20.9 µM]	–
COc1cccc(-c2cc(NCc3cnc(C)cn3)ncn2)c1	–	inconclusive [inhibitor, single point]
CC(C)(C)NC(=O)NC(=O)CN1CCN(Cc2ccccc2)CC1	–	inconclusive [inhibitor, single point]
Cc1cc(C)nc(NCC(O)CNc2ccccc2Cl)n1 (configuration not stated)	inactive: 0.344%	–
CCOC(=O)C1=C(C)NC2=C(C(=O)CCC2)C1c1ccsc1 (configuration not stated)	–	inconclusive [inhibitor, single point]
CN(C)CCCNC(=O)c1cc(Br)ccc1O	–	inconclusive [inhibitor, single point]
CCOC(=O)N1CCN(C(=O)CSc2ccc3nnc(-c4ccccn4)n3n2)CC1	–	inconclusive [inhibitor, single point]
CCOc1ccc(OCC)c(NS(=O)(=O)c2ccc3c(c2)n(C)c(=O)c(=O)n3C)c1	inactive: -3.66%	–
CC(C)(C)c1ccc(-c2nnc(NC(=O)c3ccccc3)s2)cc1	–	inconclusive [inhibitor, single point]
CN(C)c1ccc(N/C=C/C(=O)C(C)(C)C)cc1	–	inconclusive [inhibitor, single point]
O=C(Nc1ccccc1-c1ccccc1)C1CCCN(c2ncccn2)C1 (configuration not stated)	–	inconclusive [inhibitor, single point]
Cc1ccc(S(=O)(=O)N2c3ccc(S(N)(=O)=O)cc3CC2C)cc1 (configuration not stated)	–	active: 25.1 µM
O=C(c1ccc(Cl)s1)N1CCCC1	–	inconclusive [inhibitor, single point]
CC(=O)NC(c1ccco1)c1ccc2cccnc2c1O (configuration not stated)	inactive: -1.71%	–
COc1ccc(OC)c(-n2nnnc2SCC(=O)Nc2nc(C)c(C)s2)c1	–	inconclusive [inhibitor, full curve, poor fit]
O=C1CN(S(=O)(=O)c2ccccc2C(F)(F)F)CCN1	inactive: -0.959%	–
CCOC(=O)CNc1ncc(C(F)(F)F)cc1Cl	inactive: -1.37%	–
O=C1c2ccccc2C(=O)N1CSc1nnc(Nc2ccccc2)s1	–	inconclusive [inhibitor, single point]
COc1ccc(CCNC(=O)C(=O)N2CCCC2)cc1OC	inactive: -1.17%	–
